Assay results published in publication PMC5836133.
The other results are listed elsewhere or left out. At the low end of the ranking the order means little.

These sequences were tested on T1, GST-NbGlk1(82-244) (assay: protein-binding microarray). Details: NbGlk1 is a Golden2-like transcription factor of Nicotiana benthamiana; high values mean tight binding; most listed sequences are background and not binding sites; double strand, one strand shown.
T1 sequence: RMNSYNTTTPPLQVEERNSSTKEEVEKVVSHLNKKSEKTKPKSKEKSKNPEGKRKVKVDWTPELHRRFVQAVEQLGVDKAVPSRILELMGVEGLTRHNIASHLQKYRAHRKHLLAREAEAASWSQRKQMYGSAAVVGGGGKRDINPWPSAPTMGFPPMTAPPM
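Note: rank-based score ranging −0.5 to +0.5 with E above 0.45 taken as significant binding.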

Sequence	binding signal [E-score]
ACGTTATG	-0.0468
ACGCCCCT	-0.251
AAGGAGTG	-0.198
ATACGCTG	0.148
ACGGGACA	-0.0397
ACAGTCCT	-0.249
CAATTGTG	-0.0156
ACCGGATC	0.21
CAGAGCGC	-0.152
ATTGCTGG	0.129
AACTAGGA	0.00745
CACCCAAG	-0.239
ACGCACAA	-0.00729
AGTATACG	0.0327
AGTCAGAA	0.00767
AAGCAGAT	0.244
AACCGCTT	-0.0922
AAATTGTC	0.129
AACATTAG	0.0375
ATTAGACC	-0.0532
ACGAGGGA	-0.085
AGGTCTAG	-0.17

Sequence	binding signal [E-score]
ATATCCCG	0.317
AACTTAGA	0.0841
CAGACGCG	-0.00846
AGCAGGAT	0.13
ATTTAGAA	0.279
ACAGACAT	-0.00831
ACGCCGCG	-0.129
AGTAAGGA	0.0328
CAAGTAAC	-0.0603
AGAGGCAT	-0.0539
ATAATCAT	0.225
AAAGGGAT	0.174
ACTTCGGC	-0.0867
ACGTAGAA	0.191
ATACGATG	0.167
AACGGAGG	-0.131
AGTCACAG	-0.154
CAAGCCCA	-0.102
AAAGCAAG	0.0292
AAACACTG	-0.0682
ATCTATTA	0.274
AAGGGCCA	-0.307

Sequence	binding signal [E-score]
ATACTTTC	0.152
AAATAATC	0.211
ACGAGCCG	-0.348
ATGGCGTA	-0.0603
AGCAGTGG	-0.11
ACATCCTG	-0.0847
ACTTATCG	0.031
ACTCCCCG	-0.147
ATGAGCCC	-0.287
ACTTTGGG	-0.0705
AGGCGGTC	-0.345
CAACTACC	-0.0561
ACCCAAAT	0.0351
ATTGTAGG	0.0245
AAGGTCAA	-0.124
ATGCGGGG	-0.119
AGCCGCTG	-0.302
AGCGCTAG	-0.235
ATAATTGC	0.135
CAAGCTCA	-0.12
AGATGAAA	0.123
ATCTCGAA	0.367

Sequence	binding signal [E-score]
CACGGTAA	-0.0494
ACGTTACA	0.0583
CACTCAAA	0.121
CAACGACA	-0.0665
ATATTAAG	0.251
AAATCAAT	0.31
AACATGCA	-0.0508
ACACACGC	-0.0902
ATGTCGTC	-0.167
AGGGAAAT	0.334
ACCATTGA	-0.108
ATTTGACC	0.122
ACGGTGAC	-0.178
ACCACAGA	-0.0966
ACGGGCGC	-0.233
AAAACATA	0.139
ACCGCATA	-0.036
AGGAATCG	0.295
ATCCGAGG	0.111
ATACTTAA	0.13
AAAAGTTA	0.041
AAAGCTTA	0.0594

Sequence	binding signal [E-score]
AGGATCTA	0.314
ATGGACCG	-0.312
AAATTTAC	0.0625
ATCGAGGA	0.0587
AACGTATT	0.151
ACGCCGGA	-0.148
ATAGCTTA	-0.000357
ACCGGCAC	-0.183
ACTGGATG	-0.102
AAATTCCG	0.162
ATCGAGCC	0.0173
ATACAGTG	0.0451
AAACCGGT	-0.104
ATGGCAGA	0.0251
AAAGAACC	-0.0619
ATGATGCC	-0.082
AGCCACAT	-0.134
AAGGCAGC	-0.152
ACGAATAC	0.0944
AGGAATAC	0.101
ATCTTTGC	0.199
